Drawing on paper PMC12136788, this text covers binding signal for 6 molecules.

Sequences and labels used below:
T1: UNK ZnF1-3 (human, UniProt Q9C0B0 31-174)
T1 sequence: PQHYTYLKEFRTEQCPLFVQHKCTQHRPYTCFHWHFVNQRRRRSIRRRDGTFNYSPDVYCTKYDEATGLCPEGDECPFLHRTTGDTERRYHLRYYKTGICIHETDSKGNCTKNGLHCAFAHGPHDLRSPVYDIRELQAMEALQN

B1: chr19:15979567:15979568:-_ENSMUSG00000024640_ENSMUST00000025542|mus_mus|motif|central (ssRNA)
RNA: GGGAGUUCUACAGUCCGACGAUCACAGGCUAAUUUUAAACCCUAGGCUCCCCAUCAGAAUGUUUAAAAGCAGCACCUGACGGAAAAAGCAAGCAGAAUAAUUCACAGGCAAUGAAUGGCUUAGAUGACUUAGGACUUUAAUGUCAACAGAGGAUUGAGCAUCA
B2: 3127346_3129100_1597_3pUTR_ENSG00000197386_ENST00000355072|human|control|control (ssRNA)
RNA: GGGAGUUCUACAGUCCGACGAUCUGUGUGCUGUGACCGUGGCUGUUCUGUGAUGAUGUCAUGACCUGCUGACCCUGGAGUGGAAACCCCUGAAGAAGCAGCCAGCUCUCCACUGAUCUCAUCCUUCACUGAGGCUGUUAAGGCCAACAGAGGAUUGAGCAUCA
B3: chr1:180854502:180854503:+_ENSG00000143324_ENST00000367589|hu_mus|FALSE|FALSE (ssRNA)
RNA: GGGAGUUCUACAGUCCGACGAUCAUAUAAUUUAAAAAGUACAACCAGGUUUAGAAGCCCCGAAUUUAAAAGCAGGCCAUGGUAGGGGUGUCGUAAAAUUCAACAUCACCUUUUAAUACAGCUGGGUUUAAAAAUAGCCACCAACAACAGAGGAUUGAGCAUCA
B4: 130535856_130535976_749_3pUTR_ENSMUSG00000025532_ENSMUST00000026608|mouse|control|control (ssRNA)
RNA: GGGAGUUCUACAGUCCGACGAUCGCGGCACAGGCCACACAAGCCUUUCUACCCCAGACAGCUGCAGUCCUGCUCCCCCAUCUUAGCCCCUGCCCUGCUCUGACCCCAAAGCACAAAGAUUUCUUUUCAUCUUAUUUUUGUGAUCAACAGAGGAUUGAGCAUCA
B5: 55453617_55469543_8065_CDS_ENSMUSG00000027799_ENSMUST00000029374|mouse|control|control (ssRNA)
RNA: GGGAGUUCUACAGUCCGACGAUCCCUAGGCGGAUGCGGCUCAAUGAGCAACUGAGAUGGCGUCUGUCCAAAGUUCUGUAUCUGUGCUUCCAUGGCCUCCCGGAGCACAGGGUCUGUGAUGCUGUCCAGGUUUACAGAGCCUUCCAACAGAGGAUUGAGCAUCA
B6: chr5:37680062:37680063:+_ENSMUSG00000029121_ENSMUST00000031004|mus_hu|mus_mus_mus_hu_False|98_98 (ssRNA)
RNA: GGGAGUUCUACAGUCCGACGAUCUUUGGGUGUAGCUGGCACCUCGUACACAGGACCGUCAUACAUGCCCCUGGAAACCCCUUGCAAUCCAAAAACCUUAUUCCUGAUUUUGACGCGCUGGUACAGGUGCUCCGGGAACGCCUUCAACAGAGGAUUGAGCAUCA

The list shows a part of the results.

The target of the assay is T1, UNK ZnF1-3. The assay is described as follows: nsRBNS (natural sequence RNA bind-n-seq); RBNS binding buffer (assumed for nsRBNS): 25 mM Tris pH 7.5, 150 mM KCl, 3 mM MgCl2, 0.01% Triton X-100, 500 ug/ml BSA, 20 U/ml SUPERase-In, 4 C; UNK is unkempt and MSI1 is Musashi-1; names of the RNAs are library labels; protein concentration not given here; high values mean tight binding.
B1 registered a binding signal of 1.97 enrichment R. Take B2: the binding signal stood at 1.13 enrichment R. For B3 the value was 3.06 enrichment R; for B4, 1.07 enrichment R. The molecule B5 gave a binding signal of 1.12 enrichment R. B6 displayed a binding signal of 0.768 enrichment R.
